This note sets out measurements from publication PMC9262583.

Chains of the proteins cited; added tags and fusions are not shown. Lines headed by an entry give the natural chain unless they say otherwise; changes in a name come on top.
UniProt Q9NFU0: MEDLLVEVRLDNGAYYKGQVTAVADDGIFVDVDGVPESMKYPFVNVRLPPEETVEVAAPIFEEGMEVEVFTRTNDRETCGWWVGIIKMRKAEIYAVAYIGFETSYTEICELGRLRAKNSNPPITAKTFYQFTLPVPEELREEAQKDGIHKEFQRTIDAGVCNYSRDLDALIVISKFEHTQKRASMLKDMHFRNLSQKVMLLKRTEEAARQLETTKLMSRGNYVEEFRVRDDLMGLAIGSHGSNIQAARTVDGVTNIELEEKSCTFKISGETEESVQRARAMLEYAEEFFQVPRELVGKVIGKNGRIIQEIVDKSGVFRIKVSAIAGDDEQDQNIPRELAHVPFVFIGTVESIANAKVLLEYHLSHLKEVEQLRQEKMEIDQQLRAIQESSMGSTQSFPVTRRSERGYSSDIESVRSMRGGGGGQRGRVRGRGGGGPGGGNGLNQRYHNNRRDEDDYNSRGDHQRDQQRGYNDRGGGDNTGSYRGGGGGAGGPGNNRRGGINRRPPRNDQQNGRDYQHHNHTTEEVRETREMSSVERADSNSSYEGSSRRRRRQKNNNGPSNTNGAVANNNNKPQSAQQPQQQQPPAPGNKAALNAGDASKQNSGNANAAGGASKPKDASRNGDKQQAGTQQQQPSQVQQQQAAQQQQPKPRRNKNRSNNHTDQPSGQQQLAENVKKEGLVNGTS

These are yes or no findings as the source states them, for the method shown. For some of these results: In cells and extracts the contact can be indirect. Some binding calls cover weakened binding; strength is not graded here. For some of these results: Where a sequence is shown, tags or fusion partners need not be part of it.

In test [1] the target is T1, His6-qRRM1 of Glo (residues 45–141) (Drosophila) (UniProt Q9VGH5).
T1 sequence: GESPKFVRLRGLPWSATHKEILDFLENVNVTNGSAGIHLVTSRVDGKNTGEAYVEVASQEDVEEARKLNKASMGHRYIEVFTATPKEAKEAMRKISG
Description: pull-down; purified His6-qRRMs (50 μg each) immobilised on Ni-NTA agarose, incubated with late-ovary extract expressing GFP-dFMRP for 1.5 h at 4°C; anti-GFP immunoblot; only the target purified. For orientation: Immunoblotting shows a protein as a band on a membrane.

Test [2] deals with T2, His6-qRRM2 of Glo (residues 142–234) (Drosophila) (UniProt Q9VGH5).
T2 sequence: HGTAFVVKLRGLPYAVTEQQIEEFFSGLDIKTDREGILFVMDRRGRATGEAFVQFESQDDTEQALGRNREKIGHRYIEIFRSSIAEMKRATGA
Described as above.

For test [3], the target named is T3, His6-qRRM3 of Glo (residues 475–562) (Drosophila) (UniProt Q9VGH5).
T3 sequence: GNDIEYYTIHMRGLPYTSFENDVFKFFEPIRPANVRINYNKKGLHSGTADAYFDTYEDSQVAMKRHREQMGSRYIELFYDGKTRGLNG
The test is described as above.

The target of test [4] is T1, His6-qRRM1 of Glo (residues 45–141) (Drosophila). The experiment in a line: SEC; 2.5 μM ΔNT-dFMRP mixed with 20 μM qRRM domain in 20 mM HEPES-NaOH pH 8.0, 150 mM NaCl, 5 mM TCEP, 48 h at 4°C; Superdex 200 Increase 3.2/300; fractions on Coomassie-stained SDS-PAGE; both purified. For orientation: Size exclusion chromatography separates by hydrodynamic size, large species first.

The target of test [5] is T2, His6-qRRM2 of Glo (residues 142–234) (Drosophila). The test is described as above.
The target of test [6] is T3, His6-qRRM3 of Glo (residues 475–562) (Drosophila). The description is as above.
For test [7], the target named is GFP-tagged dFMRP (GFP-dFMRP) (Drosophila) (UniProt Q9NFU0). Description: co-IP; anti-GFP immunoprecipitation from late-ovary extract in the presence of RNase; immunoblot with anti-dFMRP, anti-Glo or anti-GFP.
Test [8] deals with T3, His6-qRRM3 of Glo (residues 475–562) (Drosophila). The experiment in a line: SEC; each qRRM domain alone at 20 μM in 20 mM HEPES-NaOH pH 8.0, 150 mM NaCl, 5 mM TCEP; Superdex 200 Increase 3.2/300; both purified.
In test [9] the target is T2, His6-qRRM2 of Glo (residues 142–234) (Drosophila). The test is described as above.
For test [10], the target named is T1, His6-qRRM1 of Glo (residues 45–141) (Drosophila). The test is described as above.

As for “GFP-tagged dFMRP (GFP-dFMRP) (from UniProt Q9NFU0 1-684)”, the binding entry was “no binding” in [1], “binds” in [2] and “no binding” in test [3].

Take “His6-ΔNT-dFMRP (residues 220–681) (from UniProt Q9NFU0 220-681) (domain or fragment)”: the binding entry is “no binding (tested: 2.5 μM ΔNT-dFMRP, 20 μM qRRM domain)” in test [4]; “binds” in [5]; “no binding (tested: 2.5 μM ΔNT-dFMRP, 20 μM qRRM domain)” in test [6].

B1: Glorund (Glo), endogenous (protein, UniProt Q9VGH5 1-586)
chain: MSNADVQFNYGQQGNGDNFNDDSNQQQDEDDQYNEDGGGKIENVGESPKFVRLRGLPWSATHKEILDFLENVNVTNGSAGIHLVTSRVDGKNTGEAYVEVASQEDVEEARKLNKASMGHRYIEVFTATPKEAKEAMRKISGHGTAFVVKLRGLPYAVTEQQIEEFFSGLDIKTDREGILFVMDRRGRATGEAFVQFESQDDTEQALGRNREKIGHRYIEIFRSSIAEMKRATGAGGGVGGRPGPYDIRDRGANRGGNDFGGGRNDWGNNGNFGVGANNMLGFNNLPSLMNSGNFGNNQGGNNGNFGNNSGPSNFGNFGGGNNGGNSGNFGNDSGNSGNFGNFGNNGGGNFGGNNNGGGGFNSGNNFNSPGGVNNFGNNGGSNFGGNGGGGFNNGGNFVSSSGVGNFGPIGGGRNNNNGNFGNSGFGNFGGNNNVGSNFGGGNNGGGGGFNNGSNFGGGNSMGGGGNFGPIGGGRGNDIEYYTIHMRGLPYTSFENDVFKFFEPIRPANVRINYNKKGLHSGTADAYFDTYEDSQVAMKRHREQMGSRYIELFYDGKTRGLNGGEHGGGNGGGGMGNNGGGNFSRRI
In the case of B1, in [7], the binding result is reported as “binds”.

B2: His6-qRRM3 of Glo (residues 475–562) (domain or fragment, UniProt Q9VGH5 475-562)
chain: T3 sequence
Turning to B2, in test [8], the binding entry is “no binding (tested: 20 μM)”.

B3: His6-qRRM2 of Glo (residues 142–234) (domain or fragment, UniProt Q9VGH5 142-234)
chain: T2 sequence
For B3, the binding entry in [9] was “no binding (tested: 20 μM)”.

B4: His6-qRRM1 of Glo (residues 45–141) (domain or fragment, UniProt Q9VGH5 45-141)
chain: T1 sequence
Regarding B4, the binding result in test [10] was “no binding (tested: 20 μM)”.
